In PubChem BioAssay AID493208 (National Center for Advancing Translational Sciences (NCATS), 2011):
In all, about 44,000 compounds went through this assay and about 340 (0.77%) were called active. Another 5% or so got no clear call; they are omitted. Calls follow the shape of the dose curve; as a rule, active = well fitted inhibition curve with a large enough effect; inconclusive = small, poorly fitted or top-dose-only effect; inactive = flat fitted curve, though single readings scatter. The list shows a part of the results.

Assay: Acumen qHTS Assay for Inhibitors of the mTORC1 Signaling Pathway in MEF (Tsc2-/-, p53-/-) Cells: Sytravon;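 also: plate controls were DMSO for no effect and rapamycin for full effect; nearly all actives have a fitted effect of over 50% in size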
Conditions: phospho-rpS6 immunofluorescence/PI, 24 h; series mostly up to 38.3 µM; activity change, negative = inhibition: at the top concentration
Outline: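 Readout is phospho-S6 Alexa 488 signal normalized to PI per well, reported as % active cells with thresholds set from rapamycin (7.5 nM) and DMSO controls. Cells: Tsc2-/-, p53-/- MEFs, 24 hrs compound at 37 C; PI cell number serves as viability.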

Activity change, negative = inhibition, inactive:
Cn1c(=O)c2sccc2n2c(CCCC(=O)Nc3ccc(F)cc3F)nnc12 0%
CCn1c(CN2CCN(c3cccc(Cl)c3)CC2)nc2c1c(=O)[nH]c(=O)n2C -13.8%
Cc1cc2nn(-c3ccc(Cl)cc3)nc2cc1NC(=O)C(C)C 4.62%
COCCCNc1ncnc2c1c(-c1ccccc1)cn2-c1ccc(C)c(Cl)c1 7.37%
COc1ccc2c(c1)c1c(c(=O)n(-c3ccccc3C)c(=O)n1Cc1ccccc1C)n2C 0%
COc1ccc(OC)c(NC(=O)CN2C(=O)CC(c3ccco3)Sc3ccccc32)c1 (centres undefined) -13%
O=C(COc1ccc(Cl)cc1)Nc1cc(-c2ccccc2)no1 1.05%
COc1ccc(CNC(=O)c2cc3ccccn3n2)c(OC)c1 -3.86%
CCCCOc1ccc(CNC(=O)Cn2ncn3c(cc4cc(F)ccc43)c2=O)cc1 2.29%
Cn1nc(C(=O)N2CCN(c3ccccc3)CC2)c2c1-c1ccccc1SC2 2.48%
O=C(c1ccc2c(c1)OCO2)c1cn(Cc2ccc(F)cc2)c2ccccc2c1=O -6.11%
CCCCN(CC)C(=O)Cn1c(=O)n(-c2ccc(OCC)cc2)c(=O)c2c3c(sc21)CCC3 9.36%
CCCOC(=O)c1c(NC(=O)c2nc3ncccn3n2)sc(C(=O)OCC)c1C 0.403%
CC(=O)c1cccc(-n2c(=O)c3c4c(sc3n(Cc3ccccc3Cl)c2=O)CN(C(C)=O)CC4)c1 -1.98%
Cc1ccc(C2CCN(C(=O)c3cnn(-c4ccccc4Cl)c3C3CCN(C(=O)OC(C)(C)C)CC3)C2)cc1 (centres undefined) -7.49%
COc1cc(OC)c(C2C=C(C(=O)O)Nc3ncnn32)cc1OC (centres undefined) 2.16%
COc1ccccc1CNC(=O)c1cn(C)c2ccc(S(=O)(=O)N3CCC(C)CC3)cc2c1=O -2.84%
Cc1c(F)cccc1NC(=O)C1CCCN1S(=O)(=O)c1ccc(F)cc1 (centres undefined) -12.1%
Cc1ccc(C(=O)Nc2cccc(C(=O)OCc3cc(=O)n4c5c(sc4n3)CCCC5)c2)cc1 0%
Cc1ccc(NC(=O)C2CCCN(S(=O)(=O)c3cccc4cccnc34)C2)cc1Cl (centres undefined) 0.743%
Cc1ccc2[nH]cc(C(c3ccccc3)c3cccs3)c2c1 (centres undefined) 3.6%
COc1cc(OC)c(NC(=O)c2ccc3nc(C(C)C)oc3c2)cc1Cl 3.12%
Cc1ccc(C)c(NC(=O)N2CC=C(c3c[nH]c4ccccc34)CC2)c1 -14.3%
Cc1cc(C)c(NC(=O)CSc2nc(C)cc(C)c2C#N)c(C)c1 5.08%
Cc1cccc(N(C)C(=O)C(Cc2ccccc2)NS(=O)(=O)c2cccc3nsnc23)c1 (centres undefined) -14.3%
O=C(CN1Cc2ccccc2C1=O)Nc1cc(F)ccc1F 1.16%
COc1ccc(Nc2ccc3cc(S(=O)(=O)N4CCCC4)ccc3n2)cc1Cl -14.6%
COc1ccccc1OCC(=O)N(Cc1ccc(N(C)C)cc1)CC1CCCO1 (centres undefined) -3.69%
Cc1ccc2oc(=O)c3cnn(CC(=O)N(C)c4ccc(F)cc4)c3c2c1 -2.08%
CC(=O)c1ccc(NC(=O)C2CCN(S(=O)(=O)c3ccc4c(c3)CCCN4C(=O)C3CCC3)CC2)cc1 0.816%
CCOc1ccc(-n2c(SCC(=O)Nc3ccccc3OC)nc3c(oc4ccccc43)c2=O)cc1 2.49%
CCCSc1nc(=O)c2c(n1C)NC(=O)CC2c1cccc(F)c1F (centres undefined) -0.298%
O=C(Cn1c(-c2cccs2)cc2cc(Cl)ccc21)NCc1ccccc1 -12.7%
COc1ccc(N2CCN(C(=O)Cc3c(C(=O)O)c(C)cn3C)CC2)cc1 -0.0959%
CCOC(=O)c1c(NC(=O)CCCOc2ccc(C(C)(C)C)cc2)sc2c1CCC2 15.2%
COc1ccc(-n2nc3ccc(NC(=O)COc4ccc(C)c(C)c4)cc3n2)cc1 5.7%
CCc1ccccc1NC(=O)CN(Cc1ccccc1)S(=O)(=O)c1ccc2nc(C)sc2c1 -3.43%
Cc1cccc(NC(=O)Cn2cc(S(=O)(=O)c3ccc(F)cc3)c(=O)c3cc4c(cc32)OCO4)c1 0.35%
CCc1cc(C(=O)Nc2cnn(Cc3ccc(F)cc3)c2)no1 1.06%
CC(=O)c1cccc(NC(=O)c2cnn(-c3cccc(C)c3)c2-n2cccc2)c1 -9.26%
Cc1ccc(-c2c(C(=O)N3CCN(c4cccc(C)c4C)CC3)oc(=O)c3ccccc23)cc1 -5.44%
CCC(=O)N1CCc2cc(Br)cc(S(=O)(=O)NCCc3ccccc3Cl)c21 2.28%
COc1ccc(OC)c(CCNC(=O)c2cc3c(-c4ccccc4F)nn(C)c3s2)c1 0.716%
COc1ccc(C)cc1NS(=O)(=O)c1ccc2c(c1)[C@H]1C=CC[C@H]1[C@@H](c1cccc(Cl)c1)N2 -13.4%
CCOc1cc(C(=O)Nc2ccc3oc(-c4ccc(CC)cc4)nc3c2)cc(OCC)c1OCC 9.61%
COc1ccccc1CCNC(=O)CCn1c(=O)c2cccn2c2ccc(F)cc21 6.24%
Cc1cc(C)cc(NC(=O)CSCn2nnc3c(=O)[nH]c(Cc4ccc(F)cc4)nc32)c1 6.87%
COc1ccc(CCNC(=O)CCc2c(C)nc3cc(-c4ccccc4)nn3c2C)cc1OC 0.818%
Cc1noc(/C=C/c2ccco2)c1S(=O)(=O)N1CCC(C(=O)Nc2ccc(F)cc2F)CC1 -0.718%
CCCCN(Cc1ccccc1)C(=O)CN(C)S(=O)(=O)c1ccc2c(c1)c(=O)n(C)c(=O)n2C -0.635%
Cc1ccc(OCC(=O)Nc2ccc3nc(SCc4ccccc4)sc3c2)cc1 -1.95%
CCc1cc2c(cc3c(=O)n(CCCC(=O)NCc4ccccc4Cl)nc(CC)n32)s1 -9.19%
Cc1cccc(OCc2ccc(-c3nc(C#N)c(N4CCC(C(N)=O)CC4)o3)o2)c1 -4.79%
CCOC(=O)c1cccc(NC(=O)Cn2c(=O)nc(-c3ccccc3)c3ccccc32)c1 0%
O=C(Nc1cc(C(F)(F)F)ccc1Cl)c1cc(S(=O)(=O)NCc2ccccc2)ccc1F -10.4%
CCOC(=O)c1cccc(NC(=O)CC2C(=O)N(c3ccc(F)cc3)C(=O)N2C(C)C)c1 (centres undefined) -2.12%
COCCCNC(=O)CC(c1cc(OC)c(OC)c(OC)c1)N1Cc2ccccc2C1=O (centres undefined) -2.44%
COc1ccc(NC(=O)C(Cc2ccccc2)NS(=O)(=O)c2ccc(Br)s2)cc1OC (centres undefined) -18.2%
CCOC(=O)c1c(C)[nH]c(C)c1S(=O)(=O)NCC(=O)Nc1cc(Cl)ccc1OC 3.89%
CC(=O)c1ccc(NC(=O)COc2ccccc2-c2nc(C(C)C)no2)cc1 -3.2%
CCOC(=O)C1CCN(S(=O)(=O)c2cc(-c3cc(C)no3)ccc2OC)CC1 0%
O=C(COc1ccccc1)Nc1nnc2n1CCS2 7.52%
Cc1ccc(NC(=O)C(Cc2ccccc2)NS(=O)(=O)c2ccc3c(c2)oc(=O)n3C)cc1C (centres undefined) -10.2%
CC(C)(C)C(=O)Cn1c(=O)n(CCCCCC(=O)NCc2ccccc2Cl)c(=O)c2sccc21 1.74%
COc1cc(OC)cc(-c2nc3nc(C)c(CCC(=O)Nc4ccccc4)c(C)n3n2)c1 2.09%
CC(=O)c1ccc(N2CCN(C(=O)Nc3cn(CC(C)C)c(=O)c4ccccc34)CC2)cc1 0.638%
Cc1ccc(C)c(NC(=O)CSc2nnc(NC(=O)Nc3ccccc3)s2)c1 0.166%
O=C(CSc1nc(-c2ccco2)nc2cc(=O)[nH]n12)Nc1ccc(F)cc1 -3.6%
COc1ccc(C2CC(=O)Nc3cc4c(cc32)OCO4)c(OC)c1 (centres undefined) -20.7%
CCN1CCN(Cc2nc3cc(NC(=O)c4cccc([N+](=O)[O-])c4)ccc3n2CC)CC1 -0.298%
CCc1ccc(NC(=O)Cn2c(C(=O)OC)cc3oc(C)cc32)cc1 -0.441%
CCOC(=O)N1CCC(NC(=O)c2ccc3c(c2)N(Cc2ccc(F)cc2)C(=O)c2ccccc2S3=O)CC1 (centres undefined) -1.33%
COc1ccc(CCNC(=O)c2nc(SCc3ccc(F)cc3)ncc2Cl)cc1OC -1.03%
CCc1ccc(C2CC(=O)c3c([nH]c(C(=O)OC4CCCCCC4)c3C)C2)cc1 (centres undefined) -19.5%
COc1ccc(NC(=O)CN2CCN(C3CCCCC3)C(=O)C2=O)cc1 19.8%
Cc1ccc(CCNC(=O)C(C)n2nc(C)c3c(C)n(-c4ccc(C)cc4)nc3c2=O)cc1 (centres undefined) -22.1%
CCCCCCC(=O)Nc1cc2nc3c(nc2cc1C)c(=O)n(C)c(=O)n3C 0.754%
CCOC(=O)c1c(-c2ccc(Br)cc2)csc1NC(=O)c1ccc(C(C)(C)C)cc1 2.24%
COc1ccc(CNC(=O)C2CCCN(C(=O)c3cnn(-c4ccc(F)cc4)c3-n3cccc3)C2)cc1 (centres undefined) -1.9%
CC1CCCCN1Cc1c(O)ccc2c(=O)c(-c3ccc(Cl)cc3)coc12 (centres undefined) -1.64%
Cc1ccc(CNC(=O)c2cc(=O)c3cc(C)c(C)cc3o2)cc1 -2.99%
CCOc1ccc(CC(=O)NCCc2sc(-c3cccc(F)c3)nc2C)cc1 -9.35%
O=C(NCCS(=O)(=O)N1CCN(c2ccc(F)cc2)CC1)c1ccccc1Br -2.83%
CCOc1cccc2sc(NC(=O)c3ccc(S(=O)(=O)N4CCCCC4)cc3)nc12 11.2%
COc1ccc(NC(=O)c2cc(=O)c3cc(C)cc(C)c3o2)cc1 4.18%
CC(CNc1nc2ccccc2c2nc(-c3ccccc3)nn12)c1ccccc1 (centres undefined) -2.87%
CC(=O)Nc1cccc(NC(=O)CSc2cn(CC(=O)N3CCCC3)c3ccccc23)c1 0.203%
COc1ccc(NC(=O)c2cc3c(=O)n(C)c4cc(Cl)ccc4c3s2)cc1Cl 0.441%
CC1CCN(S(=O)(=O)c2ccc3c(ccc(=O)n3CC(=O)NCc3ccccc3)c2)CC1 -4.26%
CCCS(=O)(=O)c1nc(S(=O)(=O)c2ccc(C)cc2)c(NCC(C)C)s1 -0.318%
Cc1ccc(CCNC(=O)c2oc(=O)c3ccccc3c2-c2ccc(C)cc2)cc1 -0.205%
CCC(=O)Nc1ccc(C)cc1-c1nc2ccccc2n(CC(=O)c2ccc(C)cc2)c1=O -0.098%
CC(C)(C)OC(=O)N1CCC(c2c(C(=O)NCc3ccco3)cnn2-c2ccc(F)cc2F)CC1 -12.6%
Cc1noc2ncnc(N3CCCC(C(=O)Nc4cc(F)ccc4F)C3)c12 (centres undefined) -21.1%
